Measured values from the supplement of paper PMC4967469.
The IC50 comes from the fitted curve, where viability falls to half of the control; where the fit passes the top or lowest dose, that dose stands as a limit. AUC, from the same fit, is the share of area under the viability curve across the 256-fold dose range; values near 1 show little effect. The top dose, if marked as inferred, comes from the curve model; the source does not state it.

Assays:
Experiment in all cases: Viability of human cancer cell lines after 72 h of drug (GDSC screen)
BMS-509744 = compound: COc1cc(C)c(Sc2cnc(NC(=O)c3ccc(CNC(C)C(C)(C)C)cc3)s2)cc1C(=O)N1CCN(C(C)=O)CC1 [BMS-509744]; conditions: top dose 10.24 µM; top dose inferred
Description: (§1)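 Human cancer cell lines in 384-well plates, medium with 10% serum, drug for 72 h over a 256-fold dose range (nine 2-fold or five 4-fold steps up to the top dose). Adherent lines were fixed and stained with the nucleic acid dye Syto60, suspension lines read with resazurin; signal relative to control wells, capped at 0 and 100%. One two-parameter sigmoid per drug and line, fitted in a mixed model over all curves with the slope shared within a line.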

PFI-1 = compound: COc1ccccc1S(=O)(=O)Nc1ccc2c(c1)CN(C)C(=O)N2 [PFI-1]; conditions: top dose 10 µM; top dose inferred
Description: as §1

GSK-1904529A = compound: CCc1cc(Nc2nccc(-c3c(-c4ccc(OC)c(C(=O)Nc5c(F)cccc5F)c4)nc4ccccn34)n2)c(OC)cc1N1CCC(N2CCN(S(C)(=O)=O)CC2)CC1 [GSK-1904529A]; conditions: top dose 1.024 µM; top dose inferred
Description: as §1

NG-25 = compound: CCN1CCN(Cc2ccc(NC(=O)c3ccc(C)c(Oc4ccnc5[nH]ccc45)c3)cc2C(F)(F)F)CC1 [NG-25]; conditions: top dose 10.24 µM; top dose inferred
Description: as §1

Tipifarnib = compound: Cn1cncc1[C@@](N)(c1ccc(Cl)cc1)c1ccc2c(c1)c(-c1cccc(Cl)c1)cc(=O)n2C [Tipifarnib]; conditions: top dose 16 µM; top dose inferred
Description: as §1

Cell Line	AUC (BMS-509744)	IC50 (BMS-509744)	AUC (PFI-1)	IC50 (PFI-1)	AUC (GSK-1904529A)	IC50 (GSK-1904529A)	AUC (NG-25)	IC50 (NG-25)	AUC (Tipifarnib)	IC50 (Tipifarnib)
CP67-MEL (melanoma, adherent)	0.831	> 10.2 µM								
EW-12 (Ewing sarcoma, suspension)	0.976	> 10.2 µM								
KP-N-RT-BM-1 (neuroblastoma, semi-adherent)	0.814	7.82 µM								
NCI-H128 (small cell lung carcinoma, suspension)	0.881	> 10.2 µM								
SNU-387 (liver, adherent)			0.872	> 10 µM	0.973	> 1.02 µM	0.807	6.14 µM	0.78	7.54 µM
SNU-398 (liver, adherent)			0.912	> 10 µM	0.903	> 1.02 µM	0.869	10 µM	0.122	< 0.0625 µM
SNU-423 (liver, adherent)			0.87	> 10 µM	0.953	> 1.02 µM	0.81	6.57 µM	0.478	0.859 µM
SNU-449 (liver, adherent)			0.926	> 10 µM	0.874	> 1.02 µM	0.791	5.08 µM	0.41	0.555 µM
SU8686 (pancreas, adherent)			0.909	> 10 µM	0.986	> 1.02 µM	0.967	> 10.2 µM	0.821	10.7 µM
SU-DHL-5 (B-cell lymphoma, suspension)			0.785	3.2 µM	0.994	> 1.02 µM	0.502	0.648 µM	0.452	0.762 µM
SUIT-2 (pancreas, adherent)			0.863	9.32 µM	0.965	> 1.02 µM	0.698	2.38 µM	0.556	1.43 µM
SW13 (adrenal gland, adherent)			0.862	8.75 µM	0.985	> 1.02 µM	0.988	> 10.2 µM	0.699	3.66 µM
SW48 (large intestine, adherent)			0.817	5.55 µM	0.985	> 1.02 µM	0.866	9.11 µM	0.766	5.88 µM
SW156 (kidney, adherent)			0.927	> 10 µM	0.958	> 1.02 µM	0.918	> 10.2 µM	0.77	6.75 µM
SW620 (large intestine, adherent)			0.927	> 10 µM	0.989	> 1.02 µM	0.959	> 10.2 µM	0.409	0.58 µM
SW626 (ovary, adherent)			0.812	6.65 µM	0.966	> 1.02 µM	0.935	> 10.2 µM	0.533	1.25 µM
SW756 (cervix, adherent)			0.917	> 10 µM	0.973	> 1.02 µM	0.967	> 10.2 µM	0.803	9.79 µM

Cell Line	AUC (BMS-509744)	IC50 (BMS-509744)	AUC (PFI-1)	IC50 (PFI-1)	AUC (GSK-1904529A)	IC50 (GSK-1904529A)	AUC (NG-25)	IC50 (NG-25)	AUC (Tipifarnib)	IC50 (Tipifarnib)
SW780 (bladder, adherent)			0.796	5.19 µM	0.983	> 1.02 µM	0.971	> 10.2 µM	0.969	> 16 µM
SW837 (large intestine, adherent)			0.857	> 10 µM	0.952	> 1.02 µM	0.958	> 10.2 µM	0.719	5.19 µM
SW900 (lung squamous cell carcinoma, adherent)			0.903	> 10 µM	0.979	> 1.02 µM	0.945	> 10.2 µM	0.884	> 16 µM
SW948 (large intestine, adherent)			0.979	> 10 µM	0.982	> 1.02 µM	0.944	> 10.2 µM	0.975	> 16 µM
SW1088 (glioma, adherent)			0.88	> 10 µM	0.977	> 1.02 µM	0.955	> 10.2 µM	0.803	10.9 µM
SW1271 (small cell lung carcinoma, adherent)			0.91	> 10 µM	0.961	> 1.02 µM	0.764	4.27 µM	0.499	0.992 µM
SW1417 (large intestine, adherent)			0.956	> 10 µM	0.986	> 1.02 µM	0.944	> 10.2 µM	0.918	> 16 µM
SW1463 (large intestine, adherent)			0.895	> 10 µM	0.974	> 1.02 µM	0.978	> 10.2 µM	0.773	11.7 µM
SW1710 (bladder, adherent)			0.819	5.9 µM	0.956	> 1.02 µM	0.791	4.78 µM	0.44	0.681 µM
SW1783 (glioma, adherent)			0.986	> 10 µM	0.983	> 1.02 µM	0.974	> 10.2 µM	0.403	0.559 µM
SW1990 (pancreas, adherent)			0.957	> 10 µM	0.983	> 1.02 µM	0.976	> 10.2 µM	0.76	6.56 µM
Saos-2 (osteosarcoma, adherent)			0.911	> 10 µM	0.975	> 1.02 µM	0.981	> 10.2 µM	0.844	> 16 µM
SiHa (cervix, adherent)			0.822	7.09 µM	0.987	> 1.02 µM	0.987	> 10.2 µM	0.896	> 16 µM
T47D (breast, adherent)			0.888	> 10 µM	0.967	> 1.02 µM	0.827	> 10.2 µM	0.79	11.9 µM
T84 (large intestine, adherent)			0.987	> 10 µM	0.987	> 1.02 µM	0.954	> 10.2 µM	0.405	
T98G (glioma, adherent)			0.945	> 10 µM	0.987	> 1.02 µM	0.868	8.15 µM	0.8	7.09 µM
